# Results published in paper PMC4336329 (PLoS ONE, 2015).
# In all, about 310,000 compounds went through this assay and about 2,200 (0.71%) showed an effect of 50% or more. Effects have a minus sign here. The list shows a part of the results.
# Target: human ether-à-go-go-related gene (hERG) potassium channel (human, UniProt Q12809)
# Assay: primary screen, population patch clamp on CHO cells stably expressing hERG
# Sequence of human ether-à-go-go-related gene (hERG) potassium channel (Q12809 whole entry, looked up): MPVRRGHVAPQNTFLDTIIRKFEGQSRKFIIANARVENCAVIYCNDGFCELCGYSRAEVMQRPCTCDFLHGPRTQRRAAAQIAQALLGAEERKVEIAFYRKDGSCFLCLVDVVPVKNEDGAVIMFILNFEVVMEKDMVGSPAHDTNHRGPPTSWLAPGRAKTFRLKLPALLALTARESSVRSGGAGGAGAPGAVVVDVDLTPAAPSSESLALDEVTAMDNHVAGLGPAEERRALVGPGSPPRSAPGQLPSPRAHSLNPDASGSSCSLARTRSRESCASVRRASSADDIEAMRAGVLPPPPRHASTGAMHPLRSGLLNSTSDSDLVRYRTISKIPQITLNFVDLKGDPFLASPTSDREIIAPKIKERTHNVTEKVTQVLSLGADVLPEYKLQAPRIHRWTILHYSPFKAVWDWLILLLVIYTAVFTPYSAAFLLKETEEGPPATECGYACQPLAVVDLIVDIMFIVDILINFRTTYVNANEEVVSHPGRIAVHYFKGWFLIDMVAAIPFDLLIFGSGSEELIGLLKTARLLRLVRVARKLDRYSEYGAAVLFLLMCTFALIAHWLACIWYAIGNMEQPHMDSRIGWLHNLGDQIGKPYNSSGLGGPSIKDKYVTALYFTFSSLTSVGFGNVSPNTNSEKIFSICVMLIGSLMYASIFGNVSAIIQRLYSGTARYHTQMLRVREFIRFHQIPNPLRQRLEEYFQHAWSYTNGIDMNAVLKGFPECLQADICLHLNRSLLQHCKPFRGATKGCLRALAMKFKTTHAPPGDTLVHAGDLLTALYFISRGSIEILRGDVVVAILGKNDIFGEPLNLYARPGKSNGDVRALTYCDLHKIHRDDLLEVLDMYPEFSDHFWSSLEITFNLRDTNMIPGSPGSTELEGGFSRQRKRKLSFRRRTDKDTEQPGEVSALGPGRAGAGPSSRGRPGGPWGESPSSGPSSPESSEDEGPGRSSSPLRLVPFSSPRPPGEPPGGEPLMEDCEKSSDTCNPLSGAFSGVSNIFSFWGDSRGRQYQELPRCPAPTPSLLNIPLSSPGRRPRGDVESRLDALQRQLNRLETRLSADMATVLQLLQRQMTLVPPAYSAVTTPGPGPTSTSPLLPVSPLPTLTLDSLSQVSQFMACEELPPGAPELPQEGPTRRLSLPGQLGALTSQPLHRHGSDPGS
row,SMILES,"hERG current change (%, negative = inhibition) at 1uM"
1,CC(C)c1ccc(C(O)P(=O)(OC2CCCCC2)OC2CCCCC2)cc1 (stereo not drawn),9.04%
2,CN(Cc1ccccc1)CC1CCCN(CCc2ccccc2F)C1 (stereo not drawn),-5.54%
3,Cn1c(=O)oc2cc(S(=O)(=O)NCCC(=O)Nc3ccc4c(c3)OCCO4)ccc21,6.09%
4,CCCCn1c(-c2ccc([N+](=O)[O-])cc2)n[nH]c1=S,-2.71%
5,O=C1C(=O)N(c2ccccn2)C(c2cccc(F)c2)/C1=C(/O)c1ccccc1 (stereo not drawn),-1.65%
6,Cc1c(Cc2ccccc2)sc(N)c1C(N)=O,-8.55%
7,CCOCCCNS(=O)(=O)c1ccccc1,15.7%
8,Cc1ccc(NC(=O)CCS(=O)(=O)c2ccc3c(c2)NC(=O)C(C)S3)nc1 (stereo not drawn),11%
9,NS(=O)(=O)c1cc(C(=O)N2CCc3ccccc32)c(Cl)cc1Cl,-8.88%
10,CN(C)c1ccc(CN(C(=O)COc2ccc(F)cc2)C2CCS(=O)(=O)C2)cc1 (stereo not drawn),-3.18%
11,O=S1(=O)N=C(N/N=C/c2ccccn2)c2ccccc21,3.65%
12,COC(=O)CN(C)C1CC(=O)N(c2ccc(Cl)cc2)C1=O (stereo not drawn),-11.3%
13,O=C(Nc1cccc(F)c1)/C(=C\c1cccnc1)NC(=O)c1cccs1,7.48%
14,CCOc1cc(/C=C2\SC(=S)N(N3CCOCC3)C2=O)ccc1O,5.1%
15,COc1ccccc1N1CCN(Cc2ccccc2)CC1.O=C(O)C(=O)O,6.85%
16,Cc1nn(-c2ccccc2)c(=S)n1-c1ccccc1,11.2%
17,COc1ccc(Cl)c(NC(=O)Nc2c(C)n(-c3ccccc3)c(=O)n2C)c1,9%
18,COc1ccc(/C=c2\s/c(=C\C(=O)C(C)(C)C)[nH]c2=O)cc1O,3.15%
19,Cc1cccc(Nc2nc(-c3ccc(F)cc3)cs2)n1,11.4%
20,CCc1ccc(NC(=O)C2CCCN2c2nn3c(=O)cc(C)nc3s2)cc1 (stereo not drawn),4.97%
21,N/C(=N\OC(=O)COc1ccc(Br)cc1)c1ccncc1,8.38%
22,COc1cc2c(cc1OC)C(c1ccccc1Br)NC(=O)C2 (stereo not drawn),13.8%
23,Nc1ccc(S(N)(=O)=O)cc1,5.26%

row,SMILES,"hERG current change (%, negative = inhibition) at 1uM"
1,CC(=NCC1CCCO1)c1c(O)n(-c2ccc(Cl)cc2)c(=O)[nH]c1=O (stereo not drawn),9.81%
2,O=S(=O)(NCc1cccc(C(F)(F)F)c1)NCc1ccccc1F,-7.13%
3,CC(C)(C)c1ccc(C2(C)NC(=O)NC2=O)cc1 (stereo not drawn),13.7%
4,COc1ccccc1C(CNC(=O)C(CCSC)NS(=O)(=O)c1ccccc1F)N1CCCC1 (stereo not drawn),-3.75%
5,CCOc1ccccc1NC(=O)C1CCCN(c2c(CC)c(C)nc3ncnn23)C1 (stereo not drawn),-22.2%
6,CN(C(=O)CCc1nnc(CCCCc2ccccc2)o1)C1CC(C)(C)NC(C)(C)C1,11.3%
7,COc1cccc(C2CC(=O)Nc3c2c(=O)n(C)c(=O)n3C)c1OC (stereo not drawn),12.3%
8,COc1ccc(-c2nnc3n2CCCCC3)cc1OC,10.3%
9,O=C(NCCc1ccc(F)cc1)C1CCCO1 (stereo not drawn),8.13%
10,Cc1cc(C(=O)OCC(=O)NC(C)C)c(C)o1,12.2%
11,O=C1CC(N2CCN(C/C=C/c3ccccc3)CC2)C(=O)N1Cc1ccc(N2CCCC2=O)cc1 (stereo not drawn),-13%
12,O=C1Cc2ccccc2C(=O)N1Cc1cccc(Cl)c1,6.17%
13,CC(=O)c1cccc(NC(=O)COC(=O)CCc2ccc(S(=O)(=O)N3CCOCC3)cc2)c1,5.85%
14,O=C(CNS(=O)(=O)c1ccc(F)cc1)Nc1ccccc1,13.1%
15,CC1(OC(=O)C2CCCC2)C(=O)C=C2C=C(c3ccsc3)N(c3ccccc3)C=C2C1=O (stereo not drawn),10.7%
16,COC(=O)Cc1c(C)c2cc(Cl)c(OC(=O)c3ccco3)cc2oc1=O,19.8%
17,COc1ccc(C(=O)Nc2ccc(S(=O)(=O)Nc3ncccn3)cc2)cc1OC,15.7%
18,Cc1ccc(-c2nc(=S)c3c(n2CC2CCCO2)CC(C)(C)OC3)cc1 (stereo not drawn),1.15%
19,CCOC(=O)C1=C(C)OC(N)=C(C#N)C1c1ccc(C)s1 (stereo not drawn),9.11%
20,COc1ccccc1C(=O)Nc1ccc(N2CCN(C(C)=O)CC2)cc1,13.3%
21,O=C(NCC(c1ccco1)N1CCc2ccccc2C1)c1cccc([N+](=O)[O-])c1 (stereo not drawn),-9.65%
22,Nc1cn(C2OC(CO)C(O)C2O)c(=O)[nH]c1=O (stereo not drawn),12.5%
23,CC(=O)N/C(=C/c1ccccc1)C(=O)NC(Cc1ccccc1)C(=O)O (stereo not drawn),16.8%

row,SMILES,"hERG current change (%, negative = inhibition) at 1uM"
1,COc1ccc(N(C(C)=O)S(=O)(=O)c2cccs2)cc1,14.2%
2,COC(=O)CSc1nc(NCc2ccccc2)nc(N(C)C)n1,8.88%
3,O=C(Cn1cc2c(n1)CCCC2)NCc1cccnc1,10.8%
4,COCCNC(=O)Cn1c(=O)n(CCC(=O)NCCc2ccccc2)c(=O)c2ccccc21,7.92%
5,CCOC(=O)c1sc(=N)n(-c2ccc(OC)cc2)c1C,9.86%
6,O=C(CCC1CCN(C(=O)c2cc(C(F)(F)F)ccc2Cl)CC1)NC1CC1,6.54%
7,CCOC(=O)C1CCN(c2cc3c(cc2NC(=O)c2ccccc2Br)n(C)c(=O)n3C)CC1,13.8%
8,CC1CC1C(=O)Nc1nc(-c2ccccc2)cs1 (stereo not drawn),5.05%
9,Cc1cc(C(=O)CSc2nnc(-c3ccco3)o2)c(C)n1-c1ccc2c(c1)OCCO2,7.7%
10,Cc1ccc(C)c(OCCCCN2CCCCC2)c1.O=C(O)C(=O)O,2.35%
11,COc1cc2c(cc1OC)C(C)NCC2.Cl (stereo not drawn),15.1%
12,COc1cc(C)c(S(=O)(=O)n2nnc3ccccc32)cc1C,11.7%
13,CC(NC(=O)c1ccc(F)cc1Cl)C1CC2CCC1C2 (stereo not drawn),15.6%
14,CCc1ccc(C2CC(c3ccc(F)cc3)Nc3nc(N)nn32)cc1 (stereo not drawn),5.99%
15,COc1ccc(N2CCN(S(=O)(=O)CCNC(=O)c3ccco3)CC2)cc1,5.7%
16,COc1ccc(C)cc1C1=CC(=O)C[C@H](c2ccc(F)cc2)C1,4.96%
17,Cc1ccc(C(=O)O/N=C(\c2ccccc2)c2cccnc2)cc1,9.91%
18,Cc1ccc(S(=O)(=O)NNC(=O)/C=C/c2cccc(F)c2)cc1,12.3%
19,CC1(OC(=O)CCc2ccccc2)C(=O)C=C2C=C(c3ccc(C#N)cc3)N(CCN3CCOCC3)C=C2C1=O (stereo not drawn),-2.54%
20,CCc1nnc(NC(=O)C(c2ccccc2)c2ccccc2)s1,21.4%
21,CC1(C)CC(=O)C2=C(C1)N(Cc1ccco1)C(=O)C2(NC(=O)c1cccnc1)C(F)(F)F (stereo not drawn),-5.47%
22,COc1ccc(C(=O)N2CCN(c3ccc(NC(=O)c4cccs4)cc3)CC2)cc1,6.61%
23,Cn1cc(CN2CCCCC2CO)c(-c2ccc(Oc3ccccc3)cc2)n1 (stereo not drawn),-8.54%

row,SMILES,"hERG current change (%, negative = inhibition) at 1uM"
1,Cc1ccc(S(=O)(=O)NC(=O)c2cc(C)n(C3CC3)c2C)cc1,8.77%
2,Cc1cnc(C(=O)OCC(=O)N2CCc3ccccc32)cn1,-5.43%
3,CCOC(=O)CCC(NC(=O)CCCCC(=O)NC(CCC(=O)OCC)C(=O)OCC)C(=O)OCC (stereo not drawn),9.03%
4,CCOc1ccccc1N1CC(C(=O)Nc2ccc(S(=O)(=O)N3CCCCC3)cc2)CC1=O (stereo not drawn),4.87%
5,COc1ccc(/C=N/NC(=O)C(C)Sc2ccccn2)cc1[N+](=O)[O-] (stereo not drawn),-2.07%
6,CSc1sc(C(=O)O)c2c1C(=O)CCC2,13%
7,Cc1csc(/N=C/c2ccc([N+](=O)[O-])cc2)n1,3.72%
8,COc1ccc(/C=C/CN2CCN(Cc3ccccc3)C(CCO)C2)cc1 (stereo not drawn),-28.9%
9,Cc1occc1C(=O)NNC(=S)NCc1ccccc1,2.29%
10,CCCCn1c(=O)[nH]c(=O)c2c1nc(-c1cccc(OC)c1)n2C,17.8%
11,COc1ccc(NC(=O)CN(C)S(=O)(=O)c2ccc3[nH]c(=O)oc3c2)cc1,13.4%
12,O=C(NCCc1c[nH]c2ccccc12)c1cc(Cl)c2c(c1)OCO2,12.1%
13,CCCN1CCN(C(=S)Nc2ccc(S(N)(=O)=O)cc2)CC1,15.3%
14,COc1ccccc1OCCC(=O)OCC(=O)Nc1ccc(S(=O)(=O)N2CCOCC2)cc1,-2.03%
15,COCCSc1nnc(-c2cccc(C#N)c2)n1C,2.38%
16,Cc1ccc(N(Cc2ccccc2)C(=O)c2cccc(S(=O)(=O)N3CCN(C)CC3)c2)cc1,-10.5%
17,Cc1ccc(NC(=O)CSc2ccc(-c3cccnc3)nn2)cc1Cl,3.03%
18,CCOC(=O)C1CCN(C(=O)CCN2C(=O)C3C4C=CC(C4)C3C2=O)CC1 (stereo not drawn),7.6%
19,Cc1ccc(O)c(C(=O)c2cnn(C(=O)Cc3csc(C)n3)c2)c1,13.4%
20,O=C(C1CCCCC1)N1CCCc2ccccc21,5.4%
21,Oc1[nH]c2ccccc2c1C=Nc1ccc2c(c1)OCO2,7.7%
